Holding throughout (assay): co-IP; FLAG-tagged hThrRS-L or mutant overexpressed in HEK293T; IP with anti-FLAG, Dynabeads protein G, 4°C; endogenous partners detected by western blotting
Test [1] addresses T1, hThrRS-L-Ha/A-FLAG (human) (UniProt A2RTX5).
T1 sequence: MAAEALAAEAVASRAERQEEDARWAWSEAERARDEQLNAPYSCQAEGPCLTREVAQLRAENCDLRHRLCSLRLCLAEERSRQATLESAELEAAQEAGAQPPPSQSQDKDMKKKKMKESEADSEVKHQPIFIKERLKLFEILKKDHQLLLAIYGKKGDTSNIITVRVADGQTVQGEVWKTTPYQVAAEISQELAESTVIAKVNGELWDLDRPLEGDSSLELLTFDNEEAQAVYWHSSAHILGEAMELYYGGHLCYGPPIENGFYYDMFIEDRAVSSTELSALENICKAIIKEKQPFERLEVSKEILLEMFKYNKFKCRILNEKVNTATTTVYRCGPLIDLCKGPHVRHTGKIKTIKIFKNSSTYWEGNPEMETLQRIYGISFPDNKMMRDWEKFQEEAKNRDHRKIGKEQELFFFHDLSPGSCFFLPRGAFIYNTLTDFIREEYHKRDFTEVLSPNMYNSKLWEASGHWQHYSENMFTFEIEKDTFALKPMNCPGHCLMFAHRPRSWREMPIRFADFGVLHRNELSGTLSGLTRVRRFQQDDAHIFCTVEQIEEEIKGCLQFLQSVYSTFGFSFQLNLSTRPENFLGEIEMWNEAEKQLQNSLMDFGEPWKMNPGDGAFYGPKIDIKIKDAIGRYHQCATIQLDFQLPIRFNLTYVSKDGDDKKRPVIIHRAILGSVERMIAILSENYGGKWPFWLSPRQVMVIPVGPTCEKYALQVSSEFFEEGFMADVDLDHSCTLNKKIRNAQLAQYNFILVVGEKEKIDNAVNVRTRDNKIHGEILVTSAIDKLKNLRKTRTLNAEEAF

Amino acid sequences for entries named in this document (tags omitted).
UniProt P07814: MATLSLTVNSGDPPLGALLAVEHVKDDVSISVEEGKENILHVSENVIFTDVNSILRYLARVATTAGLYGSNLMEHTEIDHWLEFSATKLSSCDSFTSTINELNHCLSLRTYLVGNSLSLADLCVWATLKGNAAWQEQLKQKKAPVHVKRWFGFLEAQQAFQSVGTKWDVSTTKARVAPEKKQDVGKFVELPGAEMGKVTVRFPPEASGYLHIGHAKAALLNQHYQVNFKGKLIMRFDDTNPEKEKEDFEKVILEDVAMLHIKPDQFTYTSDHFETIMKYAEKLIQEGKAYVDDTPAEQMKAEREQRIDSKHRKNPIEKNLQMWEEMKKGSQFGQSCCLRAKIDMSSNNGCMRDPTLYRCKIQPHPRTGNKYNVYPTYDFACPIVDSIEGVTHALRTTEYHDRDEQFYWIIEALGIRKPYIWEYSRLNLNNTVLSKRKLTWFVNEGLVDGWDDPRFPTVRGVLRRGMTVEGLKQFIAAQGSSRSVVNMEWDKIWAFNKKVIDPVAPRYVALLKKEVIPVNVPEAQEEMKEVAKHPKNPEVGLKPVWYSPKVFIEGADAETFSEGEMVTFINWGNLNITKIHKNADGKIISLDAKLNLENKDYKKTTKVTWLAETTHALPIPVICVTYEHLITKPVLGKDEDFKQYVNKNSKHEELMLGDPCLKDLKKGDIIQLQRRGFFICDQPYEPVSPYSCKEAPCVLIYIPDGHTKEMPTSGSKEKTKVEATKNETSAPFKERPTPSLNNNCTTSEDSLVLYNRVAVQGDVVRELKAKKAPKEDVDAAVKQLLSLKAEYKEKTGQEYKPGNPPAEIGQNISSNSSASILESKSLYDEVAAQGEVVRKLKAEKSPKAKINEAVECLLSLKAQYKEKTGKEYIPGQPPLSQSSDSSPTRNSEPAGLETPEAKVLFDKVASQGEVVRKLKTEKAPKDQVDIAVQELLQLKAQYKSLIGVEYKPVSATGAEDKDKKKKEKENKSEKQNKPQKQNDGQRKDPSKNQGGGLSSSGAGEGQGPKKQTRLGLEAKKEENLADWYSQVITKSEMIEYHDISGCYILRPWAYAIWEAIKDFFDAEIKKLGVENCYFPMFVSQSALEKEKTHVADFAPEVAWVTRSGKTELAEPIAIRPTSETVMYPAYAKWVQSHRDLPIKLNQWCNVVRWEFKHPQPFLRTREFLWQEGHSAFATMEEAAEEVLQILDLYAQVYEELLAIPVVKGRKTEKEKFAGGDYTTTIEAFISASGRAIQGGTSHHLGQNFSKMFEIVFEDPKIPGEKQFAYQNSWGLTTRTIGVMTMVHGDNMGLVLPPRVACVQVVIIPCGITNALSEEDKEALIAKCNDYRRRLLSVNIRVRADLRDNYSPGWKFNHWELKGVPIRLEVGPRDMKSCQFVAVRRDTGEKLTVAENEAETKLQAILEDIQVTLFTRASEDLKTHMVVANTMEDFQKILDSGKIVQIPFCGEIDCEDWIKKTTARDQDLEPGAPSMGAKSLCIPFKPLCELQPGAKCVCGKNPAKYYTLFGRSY

Test [2] addresses T2, hThrRS-L-S453D with a C-terminal FLAG tag (human) (UniProt A2RTX5).
T2 sequence: T1 sequence with A15L, A22I, A25L, A29V, A32L, S453D

Test [3] concerns the target T3, hThrRS-L-T449D with a C-terminal FLAG tag (human) (UniProt A2RTX5).
T3 sequence: T1 sequence with A15L, A22I, A25L, A29V, A32L, T449D

Changes are numbered by the printed parent chain. No constants are given. Whether binding was seen depends on the method and setting. Binding seen in cells or lysates may run through a third protein. Some entries that bind do so weakly or less than the wild type. Sequences can lack the tags named with a protein.

As for “GluProRS, endogenous in HEK293T (from UniProt P07814 1-1512) (enzyme)”, the binding entry in test [1] is “no binding”; in test [2], “binds”; in test [3], “binds”.
